In all, about 45,000 compounds went through this assay and about 65 (0.1%) were called active. The call rests on the fitted dose curve; in most records, active means well fitted activation curve with a large enough effect; inconclusive means small, poorly fitted or top-dose-only effect; inactive means no such curve, though single readings can be large or run the other way. Some of the results follow.
molecular target: Galactocerebrosidase (Homo sapiens) (UniProt P54803); experiment: A Novel Cell-Based Assay to Identify Small Molecules for B -Galactocerebrosidase; conditions: 145M-Twi-hGALC-G270D cells (Twitcher mouse brain line with human GALC G270D), HMU-beta-Gal fluorescence, 48 h; series mostly up to 57.5 µM; activation: at the top concentration; further: 0% is about no effect; nearly all actives have a fitted effect of over 65% in size
Chain of UniProt P54803 (P54803 whole entry, looked up): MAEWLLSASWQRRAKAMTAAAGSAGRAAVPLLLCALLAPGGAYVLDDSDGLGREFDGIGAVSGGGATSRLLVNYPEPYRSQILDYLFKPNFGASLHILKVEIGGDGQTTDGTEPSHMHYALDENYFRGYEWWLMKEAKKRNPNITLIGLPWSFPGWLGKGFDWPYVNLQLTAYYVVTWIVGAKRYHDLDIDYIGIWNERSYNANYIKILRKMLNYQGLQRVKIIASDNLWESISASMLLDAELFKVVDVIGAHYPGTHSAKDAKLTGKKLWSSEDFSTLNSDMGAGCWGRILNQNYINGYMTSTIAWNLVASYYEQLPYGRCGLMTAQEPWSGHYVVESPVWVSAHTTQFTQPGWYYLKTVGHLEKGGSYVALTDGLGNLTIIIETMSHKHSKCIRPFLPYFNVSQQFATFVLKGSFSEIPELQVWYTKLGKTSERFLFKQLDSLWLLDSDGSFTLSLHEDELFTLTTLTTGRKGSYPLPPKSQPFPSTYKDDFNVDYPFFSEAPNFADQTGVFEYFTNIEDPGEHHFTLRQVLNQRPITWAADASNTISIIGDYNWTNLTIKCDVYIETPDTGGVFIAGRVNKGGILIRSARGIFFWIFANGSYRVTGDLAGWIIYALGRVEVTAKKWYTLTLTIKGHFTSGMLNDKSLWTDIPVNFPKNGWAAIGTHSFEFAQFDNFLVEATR
Outline: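 Mutant human GALC (G270D), stably expressed in a Twitcher mouse brain cell line lacking endogenous GALC, is measured in live-treated cells via 6-hexadecanoylamino-4-methylumbelliferyl-β-galactoside hydrolysis (0.1 mM final, pH 5.2) with fluorescent detection.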

activation, inactive:
CC1CCN(CC2CCN(C(=O)NCc3ccc(F)cc3)CC2)CC1 -6.25%, O=C(O)c1ccc(Cn2cnc3cccnc32)cc1 -11.1%, CC1CN(C(=O)CCC(=O)NCc2cccc(Cl)c2)c2ccccc2S1 (configuration not stated) 5.14%, CCc1ccc(OCc2nc(-c3ccc(-n4cccc4)cc3)no2)cc1 -9.24%, CCc1nc(-c2cc(S(=O)(=O)N3CCN(c4ccc(OC)cc4)CC3)ccc2OC)no1 -21.2%, CC(C)CCOc1ccc(C2N=C(N)Nc3nc4ccccc4n32)cc1 (configuration not stated) 0.725%, O=S(=O)(NCCc1csc2nc(-c3ccccc3)nn12)c1cccs1 -13%, CCOc1ccc(-c2cn3c(n2)sc2cc(C(=O)NCCc4ccc(OC)cc4OC)ccc23)cc1 3.67%, O=C(NCc1ccccc1)c1nc(S(=O)(=O)Cc2ccc(F)cc2)ncc1Cl -13%, CCOc1ccc(C2C(C(=O)Nc3ccccc3)=C(C)Nc3nc(SCc4cccc(OC)c4)nn32)cc1 (configuration not stated) -14.4%, Cc1ccc(/C=C/c2onc(C)c2S(=O)(=O)N2CCC(C(=O)N3CCN(c4cccc(C)c4)C(C)C3)CC2)cc1 (configuration not stated) -14.9%, CCCCN(CC)C(=O)CSc1nc2n[nH]c(C)c2c(=N)n1-c1cccc(C)c1 -10.7%, COc1cccc2c1cc1c(=O)n(CC(=O)N3CCN(c4cccc(C(F)(F)F)c4)CC3)nc(C)n12 18.3%, CCOc1ccccc1NC(=O)C(CC(C)C)NC(=O)C1CCC(C)CC1 (configuration not stated) -14.9%, CC(Oc1c(Cl)cccc1Cl)C1=NCCN1 (configuration not stated) -8.56%, COc1ccc(-n2nc3ccc(NC(=O)c4ccc(C#N)cc4F)cc3n2)cc1Cl -12.7%, Cc1ccc(NC(=O)CCc2c(C)nn(-c3ccc(N4CCOCC4)nn3)c2C)c(C)c1 -15.8%, O=C(COc1ccccc1Cl)Nc1nnc(S(=O)(=O)N2CCCC2)s1 -9.58%, O=S(c1cc(Cl)cc(Cl)c1O)c1cc(Cl)cc(Cl)c1O -14.4%, COc1cccc(COC(=O)c2ccc(-c3nnn(Cc4cccc(OC)c4)n3)cc2)c1 -12.9%, COc1ccc(Cn2c(CO)cnc2SCC(=O)Nc2ccc3c(c2)OCCO3)cc1 -24.9%, O=C(Nc1cccs1)Nc1ccc(F)cc1F -16.8%, O=C(Nc1cccc(C(F)(F)F)c1)c1cc(-c2ccc(Cl)s2)nc2ccccc12 -10.9%, O=C(O)Cn1c(-c2cccs2)cc2cc(Cl)ccc21 -17.7%, COc1cccc2sc(NC(=O)CS(=O)(=O)c3ccc(C)cc3)nc12 -7.3%, CCOc1ccc(NC2SC(=O)N(Cc3ccccc3)C2=O)cc1 (configuration not stated) -17.6%, CC1CCc2c(sc3nnn(Cc4cccc(C(=O)OC(C)C)c4)c(=O)c23)C1 (configuration not stated) 0.544%, CN(C)CC/C=C1\c2ccccc2COc2ccccc21 0.411%, CC(=O)N1CCc2c(sc3c2c(=O)n(-c2ccc(F)cc2)c(=O)n3Cc2ccc(C#N)cc2)C1 -17.9%, COCCn1ccc2c(OCC(=O)Nc3c(C)cc(C)cc3C)cccc2c1=O -10.7%, COCCCNC(=O)Cn1nc(N2CCN(c3ccccc3)CC2)ccc1=O -4.65%, Cn1c(-n2cccc2)c(-c2c(-c3ccc(F)cc3)[nH]c3c2c(=O)n(C)c(=O)n3C)c(=O)n(C)c1=O 26.9%, CCCSc1oc(-c2ccco2)nc1S(=O)(=O)c1ccc(Br)cc1 -13.8%, Cc1ccc(S(=O)(=O)n2nc(-c3ccc(Cl)cc3)nc2NCc2ccccc2)cc1 -6.45%, COc1ccc(-n2ccnc(NCc3cccs3)c2=O)cc1OC -7.62%, CCn1c(C(=O)NCc2ccccc2OC)cc2sccc21 4.37%, CCOc1ccccc1CNC(=O)C1CCN(S(=O)(=O)c2c(C)noc2/C=C/c2ccccc2F)CC1 -7.15%, CC1=C(c2ccc(C(C)C)cc2)S(=O)(=O)N=C1N1CCC(C(=O)NCc2ccccc2)CC1 -4.99%, COc1ccc(CC(=O)Nc2cc(-c3cn4cccnc4n3)ccc2C)cc1OC -2%, CCC(=O)Nc1ccc(CC)cc1-c1nc2ccccc2n(CC(=O)Nc2cccc(OC)c2)c1=O -11%, COc1cccc(C2=CC(c3ccccc3F)n3ncc(C(=O)Nc4ccc(C)cc4)c3N2)c1 (configuration not stated) -11.9%, Cc1ccc(CCNC(=O)c2sc3ncccc3c2-n2c(C)ccc2C)cc1 -17.9%, CC1CCCCN1c1c(S(=O)(=O)c2ccc(Cl)cc2)cnc2ccccc12 (configuration not stated) -8.06%, COc1ccc(C(=O)Nc2ccc3nc4c(c(Nc5ccc(OC)c(OC)c5)c3c2)CCCC4)c(OC)c1 -4.53%, CCOC(=O)c1cc2c(=O)n3ccccc3nc2n(CC(C)C)c1=NC(=O)COc1ccc(Cl)cc1 -19.1%, COc1ccc(-c2nc(CS(=O)CC(=O)NCCc3ccccc3)c(C)o2)cc1OC (configuration not stated) -17.4%, Cc1cc(C)cc(-n2ccnc(NCCc3ccccc3)c2=O)c1 2.96%, CCc1ccc(-n2c(=O)c3ccccc3n(CC(=O)NCCc3ccc(OC)c(OC)c3)c2=O)cc1 -4.62%, COc1ccc(Cl)cc1NC(=O)NCCn1c(=O)oc2ccc(C)cc21 -13.2%, COc1ccc(C)cc1NC(=O)N1CCC(CN2CCOCC2)CC1 -0.755%, Cc1ccc(N(CC(=O)N2CCN(c3cccc(Cl)c3)CC2)S(=O)(=O)c2c(C)noc2C)cc1 -1.64%, Cc1ccc(Cl)cc1-n1nnc(-c2nsc(NC(=O)c3ccccc3Cl)n2)c1C -11.3%, COc1ccc(OC)c(NC(=O)CCCc2nnc3n(C(C)C)c(=O)c4sccc4n23)c1 -9.34%, CCn1cc2nc(SCc3cccc(C(F)(F)F)c3)n(Cc3ccc(Cl)cc3)c(=O)c2n1 -11.2%, Cc1ccc(C)c(N2CCN(C(=O)c3cnn(C(C)(C)C)c3C3CCN(C(=O)OC(C)(C)C)CC3)CC2)c1 -14.3%, Cc1ccc2oc(C(=O)Nc3ccc(S(=O)(=O)N4CCCC(C)C4)cc3)cc(=O)c2c1 (configuration not stated) -22.2%, COc1ccc(-c2cn3nc(N4CCC(C(=O)Nc5ccccc5OC)CC4)sc3n2)cc1 6%, CCN(CC)C(=O)c1sc2c(c1C)c(=O)n(-c1ccccc1)c(=O)n2Cc1c(C)cc(C)cc1C -3.17%, CCOc1ccc(NC(=O)CC2C(=O)N(c3ccccc3)C(=O)N2CCc2cccs2)cc1 (configuration not stated) -8.1%, Cn1cc(S(C)=O)c(=O)c2ccc(F)cc21 (configuration not stated) -22%, Cc1ccc2cc3cc(C(=O)N4CCN(c5ccc(Cl)cc5)CC4)oc3nc2c1 -14.4%, Cc1ccccc1NC(=O)c1c(NC(=O)c2ccccc2)sc2c1CCC2 -16.9%
